Assay results: the supplement of paper PMC12217912
The other results are listed elsewhere or left out. Sequences were assembled here from the parent chain. Inactive controls read about 0.05.

B1: TEV protease; numbered along this chain (parent)
chain: MGESLFKGPRDYNPISSSICHLTNESDGHTTSLYGIGFGPFIITNKHLFRRNNGTLVVQSLHGVFKVKDTTTLQQHLVDGRDMIIIRMPKDFPPFPQKLKFREPQREERICLVTTNFQTKSMSSMVSDTSCTFPSGDGIFWKHWIQTKDGQCGSPLVSTRDGFIVGIHSASNFTNTNNYFTSVPKNFMELLTNQEAQQWVSGWRLNADSVLWGGHKVFMVKPEEPFQPVKEATQL

Variants of: B1
Test: raw area under fraction-flipped curve 0-4 h after induction (AUC4h, not background-subtracted), DNA-recorder readout of cleavage of the substrate (dimensionless); higher = more cleavage of the substrate by the protease variant
Conditions: temperature: 34 °C; time window: 0-4 h after rhamnose induction
Protocol: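 In vivo DNA recorder in E. coli TOP10(DE3) ΔrhaA at 34 °C. Each TEVp single-site mutant (parent TEVp 0) is paired with a single-site variant of the 7-mer TEVs (canonical ENLYFQ|S). The substrate sits between flexible linkers in a Bxb1-sfGFP-TEVs-SsrA fusion, so cleavage stabilises Bxb1 and speeds flipping of a recombination array, read by NGS. The value is the raw area under the fraction-flipped curve over 0-4 h after rhamnose induction (AUC4h), with ≥20 reads per time point. It is not background-subtracted; inactive controls average about 0.047.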
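Further: Bxb1 expression induced with 0.2% (w/v) L-rhamnose at OD600 near 0.5, cultures sampled hourly, flipped fraction per protease–substrate barcode pair counted by paired-end Illumina sequencing.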

| Variant | area with substrate ENLYFAS | area with substrate ENLYFDS | area with substrate ENLYFES | area with substrate ENLYFFS | area with substrate ENLYFHS | area with substrate ENLYFIS | area with substrate ENLYFKS | area with substrate ENLYFNS | area with substrate ENLYFPS | area with substrate ENLYFRS |
| --- | --- | --- | --- | --- | --- | --- | --- | --- | --- | --- |
| F65P | 0.0503 | 0.0384 | 0.0221 | 0.0428 | 0.0511 | 0.0366 | 0.0514 | 0.0419 | 0.06 | 0.0395 |
| F65Q | 0.0568 | – | – | – | – | 0.0505 | – | – | – | 0.0609 |
| K66Y | 0.0508 | 0.0618 | 0.0669 | 0.0637 | 0.0682 | 0.0587 | – | 0.0536 | 0.0374 | 0.0644 |
| V67G | 0.0774 | – | 0.053 | 0.0603 | 0.0494 | 0.046 | 0.0347 | 0.0494 | – | 0.0404 |
| T70F | 0.0738 | 0.0523 | – | – | – | 0.051 | 0.0489 | 0.0573 | 0.0828 | – |
| Q75D | 0.0501 | 0.0831 | – | 0.0492 | – | 0.0577 | – | – | 0.054 | 0.0591 |
| Q75M | 0.0652 | – | 0.0504 | – | – | 0.0583 | 0.041 | 0.0498 | 0.0573 | – |
| H76F | 0.0468 | – | 0.0664 | 0.0791 | 0.0701 | 0.0594 | 0.0632 | 0.0967 | 0.0541 | – |
| H76T | 0.0579 | – | – | – | – | 0.0761 | – | 0.0466 | 0.06 | – |
| L77R | 0.0597 | – | 0.0793 | 0.0658 | 0.0571 | 0.0661 | 0.0636 | 0.06 | – | – |
| V78D | 0.049 | – | 0.0553 | 0.0569 | 0.0489 | 0.052 | 0.0617 | 0.0503 | 0.0571 | 0.0357 |
| V78E | 0.047 | 0.065 | 0.0532 | 0.0663 | 0.0533 | 0.0431 | 0.0569 | 0.0635 | 0.0406 | – |
| D79E | 0.0546 | – | – | – | – | 0.0604 | – | – | – | – |
| D79Q | 0.057 | – | – | – | – | – | 0.057 | – | – | – |
| R81A | 0.0459 | 0.0547 | 0.0528 | 0.0619 | 0.0617 | 0.051 | – | – | 0.0622 | 0.0619 |
| R81P | 0.0533 | – | – | 0.0753 | – | – | – | – | 0.0514 | – |
| D82V | 0.0481 | 0.0831 | 0.0586 | 0.0344 | – | 0.0495 | 0.0791 | – | – | – |
| M83E | 0.0535 | 0.0373 | 0.0677 | 0.0532 | – | – | 0.0787 | 0.0581 | 0.0494 | – |
| M83R | 0.0473 | – | – | – | 0.0509 | 0.0502 | 0.0389 | – | 0.0498 | – |

| Variant | area with substrate ENLYFAS | area with substrate ENLYFDS | area with substrate ENLYFES | area with substrate ENLYFFS | area with substrate ENLYFHS | area with substrate ENLYFIS | area with substrate ENLYFKS | area with substrate ENLYFNS | area with substrate ENLYFPS | area with substrate ENLYFRS |
| --- | --- | --- | --- | --- | --- | --- | --- | --- | --- | --- |
| I84N | 0.0474 | – | – | – | 0.0632 | 0.0687 | – | 0.0532 | – | – |
| I85A | 0.0556 | – | 0.0604 | – | – | – | – | 0.0541 | – | 0.0624 |
| R87D | 0.0485 | 0.0408 | 0.034 | 0.0657 | – | 0.048 | – | – | 0.0565 | – |
| R87N | 0.0598 | – | 0.0658 | – | – | 0.0406 | – | – | 0.0507 | – |
| R87T | 0.0621 | – | – | 0.0627 | 0.0469 | 0.0471 | 0.0593 | – | – | – |
| R87V | 0.0575 | – | 0.0676 | 0.0475 | – | 0.0543 | – | – | 0.0758 | – |
| P89A | 0.079 | – | 0.068 | 0.0436 | 0.0567 | 0.0528 | – | – | – | – |
| P89V | 0.0528 | – | – | 0.0624 | – | – | 0.036 | – | 0.0432 | – |
| D91S | 0.0468 | – | – | – | – | 0.0514 | – | – | 0.0704 | – |
| F92G | 0.0775 | 0.0556 | – | – | – | – | – | – | 0.0592 | – |
| F92K | 0.0523 | – | 0.0533 | 0.0641 | – | 0.0563 | 0.0572 | – | – | – |
| F92N | 0.0401 | – | 0.0465 | – | – | 0.0512 | 0.0445 | – | 0.0589 | 0.0546 |
| F92V | 0.0512 | – | 0.0618 | – | 0.0651 | 0.0651 | – | 0.0541 | 0.0597 | 0.0375 |
| P93C | 0.0465 | – | – | – | 0.0641 | – | 0.0455 | – | – | – |
| P94N | 0.0555 | – | – | 0.06 | – | 0.0543 | 0.059 | – | – | 0.0577 |
| Q97D | 0.0432 | 0.0473 | – | 0.0902 | – | – | – | – | – | – |
| Q97E | 0.0591 | – | – | – | – | – | – | – | 0.0575 | – |
| Q97W | 0.0457 | – | – | – | – | 0.0483 | – | – | 0.0629 | – |
| K98V | 0.0538 | 0.0514 | 0.079 | 0.0589 | – | 0.0547 | 0.0514 | – | 0.0684 | – |

Same assay, conditions: temperature: 34 °C; time window: 0-4 h after rhamnose induction

| Variant | area with substrate ENLYFSS | area with substrate ENLYFTS | area with substrate ENLYFVS | area with substrate ENLYFYS | area with substrate ENLYFCS | area with substrate ENLYFGS | area with substrate ENLYFMS | area with substrate ENLYFWS | area with substrate ENLYFLS |
| --- | --- | --- | --- | --- | --- | --- | --- | --- | --- |
| F65P | 0.0526 | 0.0625 | 0.041 | 0.0373 | – | – | – | – | – |
| F65Q | 0.0669 | 0.058 | – | – | 0.0595 | 0.0625 | 0.0862 | – | – |
| K66Y | 0.0475 | 0.0787 | 0.0672 | 0.0568 | – | 0.065 | 0.0751 | 0.0727 | – |
| V67G | – | – | – | – | – | – | 0.0478 | 0.0535 | – |
| T70F | 0.0366 | – | – | – | 0.0402 | – | – | – | – |
| Q75D | – | 0.0582 | – | – | 0.0384 | – | 0.0621 | 0.0498 | – |
| Q75M | – | – | – | 0.0678 | – | – | 0.0658 | – | – |
| H76F | – | 0.0595 | 0.0584 | – | 0.0566 | – | 0.0758 | 0.0708 | – |
| H76T | – | – | 0.07 | 0.0526 | 0.0515 | – | 0.0491 | 0.0646 | – |
| L77R | 0.0653 | – | – | 0.0589 | 0.0492 | – | – | 0.0469 | – |
| V78D | 0.0558 | – | – | 0.0577 | 0.0568 | 0.0618 | 0.0614 | 0.0569 | – |
| V78E | 0.0652 | 0.0506 | 0.0489 | 0.053 | 0.0348 | 0.0616 | 0.0519 | – | 0.0553 |
| D79E | – | – | – | – | 0.0748 | 0.0564 | – | 0.0235 | 0.0652 |
| D79Q | – | – | 0.0567 | 0.0553 | – | – | – | 0.112 | – |
| R81A | 0.0611 | 0.0454 | – | – | 0.0507 | – | 0.06 | 0.0631 | – |
| R81P | – | 0.0446 | – | – | – | – | – | – | – |
| D82V | – | – | – | – | 0.0469 | 0.0331 | 0.0535 | – | – |
| M83E | 0.0512 | 0.0672 | – | 0.0624 | 0.0314 | – | 0.0495 | – | – |

| Variant | area with substrate ENLYFSS | area with substrate ENLYFTS | area with substrate ENLYFVS | area with substrate ENLYFYS | area with substrate ENLYFCS | area with substrate ENLYFGS | area with substrate ENLYFMS | area with substrate ENLYFWS | area with substrate ENLYFLS |
| --- | --- | --- | --- | --- | --- | --- | --- | --- | --- |
| M83R | – | 0.0546 | 0.0485 | 0.0385 | 0.0373 | – | – | – | – |
| I85A | 0.0588 | 0.03 | – | – | – | – | 0.0462 | – | – |
| R87D | – | 0.0577 | – | – | 0.0583 | – | 0.0571 | – | – |
| R87N | – | – | – | – | 0.0477 | – | – | – | – |
| R87T | – | 0.0809 | 0.0137 | – | – | – | – | – | – |
| R87V | – | – | – | – | – | – | 0.0748 | – | – |
| P89A | – | 0.0624 | – | – | – | – | 0.0388 | – | – |
| P89V | – | 0.0516 | – | – | – | 0.0574 | 0.0476 | 0.0586 | 0.0493 |
| D91S | – | – | – | – | 0.0577 | – | 0.0657 | – | 0.0509 |
| F92G | – | 0.0526 | – | 0.0513 | 0.0528 | – | – | – | – |
| F92N | 0.0619 | 0.0554 | – | – | 0.0641 | – | 0.0587 | 0.0499 | – |
| F92V | – | 0.0639 | 0.0478 | – | – | 0.0669 | – | – | – |
| P93C | 0.073 | – | 0.0392 | – | – | – | 0.0618 | 0.0282 | – |
| P94N | – | – | – | 0.0647 | – | 0.0632 | 0.0777 | – | 0.0587 |
| Q97D | – | – | 0.0493 | – | 0.0624 | – | 0.0894 | – | – |
| Q97E | – | 0.0424 | 0.0598 | – | – | – | 0.0693 | – | – |
| Q97W | 0.0628 | – | – | – | 0.0645 | – | – | – | 0.0673 |
| K98V | – | 0.0685 | – | – | 0.0648 | – | 0.0641 | 0.0495 | – |
